In PubChem BioAssay AID686978 (National Center for Advancing Translational Sciences (NCATS), 2013):
Hit rate of the full screen: of about 420,000 compounds, about 64,000 (15%) were called active. The inconclusive results got no clear call from the source; some entries with a clear call stand among them for comparison. Calls come from the whole dose curve; as a rule, active = well fitted inhibition curve with a large enough effect; inconclusive = small, poorly fitted or top-dose-only effect; inactive = flat fitted curve, though single readings scatter. Potencies of inconclusive entries are left out as doubtful fits.

Test: qHTS for Inhibitors of human tyrosyl-DNA phosphodiesterase 1 (TDP1): qHTS in cells in absence of CPT; note: nearly all actives have a fitted effect of over 55% in size
Conditions: DT40 Tdp1-/- hTDP1 cells, no CPT, ATP luminescence, 48 h; activity change, negative = growth inhibition: at 46.2 µM (top of the series) unless noted
Method in brief: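 Chicken DT40 Tdp1-/- cells complemented with human TDP1, screened without camptothecin (DMSO vehicle only), 400 cells/well. Compounds pin-transferred, cells incubated at 37 °C for at least 48 hr. Growth read as ATP-dependent luminescence (CellTiter-Glo, 30 min at RT).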
% is set by controls: 0 for no effect and ±100 for the full control effect; potency is the fitted concentration of half-maximal effect; tags give direction and shape of the fitted curve.

SMILES | Potency | activity change, negative = growth inhibition
Cc1ccc(N=Nc2c(O)n(CN3CCOCC3)c3ccccc23)cc1 | inconclusive [inhibitor, partial curve] | –
O=C(CSc1nc2c(oc3ccccc32)c(=O)[nH]1)Nc1cccc(Cl)c1 | inactive | –
CN(C)c1cccc(C(=O)Nc2ccc(-c3nc4ccccc4s3)cc2)c1 | active: 13 µM | –
COc1ccccc1Nc1nc2ccccc2n2cnnc12 | inconclusive [inhibitor, partial curve] | –
CCCCc1nc(NCc2ccccc2)c(C#N)c2c1COC(C)(C)C2 | inconclusive [inhibitor, single point] | –
Cc1cc(C(=O)NNC(C)Cc2ccccc2)no1 (stereo not drawn) | inactive | –
CC(C)NC(C(=O)Nc1cc(Cl)cc(Cl)c1)c1ccccc1 (stereo not drawn) | inconclusive [inhibitor, single point] | –
CCCn1c(N)c(C(=O)CSc2ncc(C(F)(F)F)cc2Cl)c(=O)[nH]c1=O | – | inconclusive: -34.1% [inhibitor]
CCC(CO)Oc1cc(NCc2ccc(C)cc2)c2ncn(C(C)C)c2c1 (stereo not drawn) | inconclusive [inhibitor, single point] | –
O=C(C[C@H]1C[C@H](C(=O)N2CCCCC2)[C@@]2(CCc3ccccc3)c3[nH]c4ccc(Cl)cc4c3CCN2C1=O)NCc1ccco1 | active: 8.2 µM | –
C=CCC1(CC=C)CCCN1C(=O)c1cc(COc2ccc(F)c(F)c2)on1 | inconclusive [inhibitor, single point] | –
CCOc1cc(CNn2cnnc2)cc(Cl)c1OCC(=O)NC(C)(C)C | inactive | –
O=C(N/N=C/c1ccc(Cl)c([N+](=O)[O-])c1)c1cc(-c2ccc3c4c(cccc24)CC3)n[nH]1 | inconclusive [inhibitor, single point] | –
CCOC(=O)c1ccc(NC(=O)c2cc3c(n(-c4ccc(C)cc4)c2=O)CC(C)(C)CC3=O)cc1 | – | inconclusive: -6.13% [inhibitor]
Cc1ccc(OCCn2c(SCCO)nc3c(N)ncnc32)cc1 | inconclusive [inhibitor, partial curve, poor fit] | –
O=C(NCCc1ccccc1Cl)C1CCC(=O)N(Cc2ccc(Cl)cc2)C1 (stereo not drawn) | inconclusive [inhibitor, single point] | –
Cc1ccc(CCNC(=O)c2ccc(CSCc3ccc(C)cc3)o2)cc1 | inconclusive [inhibitor, single point] | –
Cc1c[nH]c2cccc(OCC(O)CNC(C)(C)C)c12 (stereo not drawn) | inactive | –
CCCCCC(=O)Nc1cc(S(=O)(=O)N2CCCCC2)ccc1N1CCOCC1 | inconclusive [inhibitor, single point] | –
O=C(c1csc2c1CCCC2)N1CCN(c2cccc(C(F)(F)F)c2)CC1 | active: 14.6 µM | –
CC(C)(C)C(O)(CC#CCN1CCCC1)c1ccccc1 (stereo not drawn) | inconclusive [inhibitor, single point] | –
COc1ccc(CN2CCN(Cc3c[nH]c4ccccc34)CC2)cc1 | active: 13 µM | –
COc1cccc(NC(=O)N2CCN(c3nnnn3-c3ccccc3)CC2)c1 | inconclusive [inhibitor, partial curve, poor fit] | –

SMILES | Potency | activity change, negative = growth inhibition
Cc1nc(C(=O)NC2CCCCC2)sc1C1(C)CC(c2cccc([N+](=O)[O-])c2)=NO1 (stereo not drawn) | active: 23.1 µM | –
COc1cc(NC(=O)c2cc(OC)c(OC)c(OC)c2)c2ncccc2c1 | inconclusive [inhibitor, single point] | –
O=C(CN1c2cccc3cccc(c23)S1(=O)=O)Nc1ccccc1 | inconclusive [inhibitor, single point] | –
CC(=O)c1ccc(N(C(=O)c2ccco2)C(C(=O)NC2CCCC2)c2ccc(N3CCOCC3)cc2)cc1 (stereo not drawn) | inactive | –
COc1cccc(C=NNC(=O)CCCC(=O)NN=Cc2cccc(OC)c2)c1 | inactive | –
COc1ccc(-c2cc3nc(NCCN4CCCC4)n(C)c(=O)c3s2)cc1OC | active: 18.4 µM | –
CCCCNC(=O)C1c2ccccc2OCC(=O)N1Cc1ccccc1 (stereo not drawn) | inconclusive [inhibitor, single point] | –
Cc1ccc(C(=O)Nc2ccccc2C(=O)N2CC3(C)CC2CC(C)(C)C3)cc1 (stereo not drawn) | inconclusive [inhibitor, single point] | –
CC(C)n1c(SCC(=O)N2c3ccccc3Sc3ccccc32)nc2c1c(=O)n(C)c(=O)n2C | active: 16.4 µM | –
CCOC(=S)SCC(=O)Nc1nccs1 | active: 20.6 µM | –
CCc1nnc(NC(=O)CSCc2cc(=O)n3nc(C)sc3n2)s1 | inconclusive [inhibitor, single point] | –
O=C(CCc1ccc(Oc2cc([N+](=O)[O-])cc([N+](=O)[O-])c2)cc1)N1CCCCCC1 | inconclusive [inhibitor, single point] | –
CN(C)CCNC(=O)c1cccc(-c2cnc3c(NC=O)cc(-c4cccs4)cn23)c1 | inconclusive [inhibitor, single point] | –
C/C(=N\NC(=O)C1CCCC1)c1ccc(C(C)C)cc1 | inconclusive [inhibitor, single point] | –
COc1ccc(C(=S)NC2CCCCC2)cc1 | – | inconclusive: -34.2% [inhibitor]
CCc1ccc(NC(=O)Cn2c(=O)ccc3cc(S(=O)(=O)N4CCCC4)ccc32)cc1 | inactive | –
CC(=O)Oc1ccc(C(=O)Nc2cccc(C(=O)c3ccc(C)c(C)c3)c2)cc1 | inconclusive [inhibitor, single point] | –
CCOC(=O)c1cccc(Nc2cc(C)nc(C)n2)c1 | active: 16.4 µM | –
COC(=O)[C@@]12C[C@@H](CC(=O)NCCc3ccccc3OC)C(=O)N(Cc3cccc4ccccc34)C1=CCC(C)(C)C2 | inconclusive [inhibitor, single point] | –
CN(C(=O)c1cccc(NC(=O)Cc2ccc(NC(=O)C3CCCN(C(=O)c4ccccc4)C3)cc2)c1)C1CCCC1 (stereo not drawn) | inconclusive [inhibitor, single point] | –
CC1CCCC(NC(=O)CNCc2ccccc2F)C1C (stereo not drawn) | inconclusive [inhibitor, single point] | –
Cc1ccc(C(C)NC(=O)CSc2ccc(S(=O)(=O)N3CCOCC3)cn2)cc1C (stereo not drawn) | – | inconclusive: -30.4% [inhibitor]
NS(=O)(=O)c1ccc(CNC(=S)Nc2ccc(Cl)c(Cl)c2)cc1 | inconclusive [inhibitor, single point] | –

SMILES | Potency | activity change, negative = growth inhibition
O=C(Nc1ccc(F)cc1)c1ccc2nc[nH]c2c1 | inconclusive [inhibitor, single point] | –
COc1ccc(N(CC(=O)N2CCN(c3ccccc3)CC2)S(=O)(=O)c2ccccc2)cc1 | active: 18.4 µM | –
COc1ccc(S(=O)(=O)N2CCN(Cc3ccc(OC)c(OC)c3)CC2)cc1 | inconclusive [inhibitor, single point] | –
Cc1noc(Cn2c(=O)c3ccccc3n(CC(=O)Nc3ccccc3C(F)(F)F)c2=O)n1 | inactive | –
Cc1ccc(C2NC(=O)c3c(sc(C)c3C)N2)c(O)c1 (stereo not drawn) | inactive | –
CC(C)C12CN3CC(C(C)C)(CN(C1)C3c1ccc3c(c1)OCO3)C2=O (stereo not drawn) | inconclusive [inhibitor, partial curve] | –
Oc1ccc(Nc2nc(-c3ccc(Cl)cc3)nc3ccccc23)cc1 | inconclusive [inhibitor, single point] | –
C#CCOCCOCCOCCNc1nc(N2CCN(C(=O)CCCCCCCCCCNC(=O)Cn3cc(CCCCCN)nn3)CC2)nc(N2CCN(C(=O)CCCCCCCCCCNC(=O)[C@@H]([C@H](C)O)n3cc(C)nn3)CC2)n1 | inconclusive [inhibitor, single point] | –
COCCCNc1nc2nonc2nc1N1CCN(Cc2cccc(C)c2)CC1 | inconclusive [inhibitor, single point] | –
c1ccc(CCn2c3ccccc3c3nnc(SCc4ccc5nonc5c4)nc32)cc1 | active: 16.4 µM | –
CCOCCCn1c(=N)c(C(=O)NC2CCCC2)cc2c(=O)n3cccc(C)c3nc21 | active: 20.6 µM | –
Cc1nnc2c3ccccc3nc(N3CCN(c4cccc(Cl)c4)CC3)n12 | active: 11.6 µM | –
COCCNc1nc(CSc2ccccc2)nc2sc(C)c(C)c12 | inconclusive [inhibitor, partial curve, poor fit] | –
COc1ccc(-c2cc(C(=O)Nc3ccc(OC)c(OC)c3)[nH]n2)c(C)c1 | inconclusive [inhibitor, single point] | –
Cc1cccc(-n2ncc3c(Nc4c(C)cc(C)cc4C)ncnc32)c1 | active: 4.61 µM | –
COc1cc(C(C)=O)ccc1OCC(=O)NCC1(N2CCCCC2)CCCCC1 | inactive | –
O=C(N/N=C/c1cccnc1)C1CCCN(S(=O)(=O)c2ccccc2)C1 (stereo not drawn) | inactive | –
COc1cc(/C=C/C(=O)OCC(=O)N2c3ccccc3NC(=O)C2(C)C)cc(OC)c1OC | active: 10.3 µM | –
COC(=O)c1ccc2nc(-c3ccc(OC)c(OC)c3)c(Cc3ccccc3)n2c1 | active: 20.6 µM | –
O=C1CSc2ccc(S(=O)(=O)N3CCN(c4ccccc4F)CC3)cc2N1 | inconclusive [inhibitor, single point] | –
O=C(NC(c1ccccc1)c1ccc2ccccc2n1)C1CCN(CCOc2ccc(Cl)cc2Cl)CC1 (stereo not drawn) | inconclusive [inhibitor, single point] | –
Cc1c(C(=O)Nc2ccc(Cl)cc2)c2ccccn2c1C(=O)c1ccccc1 | inconclusive [inhibitor, partial curve] | –
